# T1: human B7-H7 on the cell surface (human, UniProt Q9UM44 23-414)
# T1 construct: whole, on cells; also called hB7-H7; hu B7-H7
# T1 sequence (looked up): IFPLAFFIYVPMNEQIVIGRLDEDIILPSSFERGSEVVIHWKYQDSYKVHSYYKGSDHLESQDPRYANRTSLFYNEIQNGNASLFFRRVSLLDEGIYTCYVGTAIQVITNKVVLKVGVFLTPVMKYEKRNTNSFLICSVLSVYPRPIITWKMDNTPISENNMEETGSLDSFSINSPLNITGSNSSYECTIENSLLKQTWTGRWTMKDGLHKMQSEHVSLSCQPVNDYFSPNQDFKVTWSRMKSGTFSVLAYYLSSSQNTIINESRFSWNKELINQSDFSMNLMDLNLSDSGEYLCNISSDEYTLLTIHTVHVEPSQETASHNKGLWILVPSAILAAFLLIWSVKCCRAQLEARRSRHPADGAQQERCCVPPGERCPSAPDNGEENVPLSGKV
# T2: biotinylated human B7-H7 protein (Acro Biosystems, B77-H82F5) (human, UniProt Q9UM44 23-344, biotinylated)
# T2 construct: Bought soluble protein; also called biotin-B7H7 protein
# T2 sequence (looked up): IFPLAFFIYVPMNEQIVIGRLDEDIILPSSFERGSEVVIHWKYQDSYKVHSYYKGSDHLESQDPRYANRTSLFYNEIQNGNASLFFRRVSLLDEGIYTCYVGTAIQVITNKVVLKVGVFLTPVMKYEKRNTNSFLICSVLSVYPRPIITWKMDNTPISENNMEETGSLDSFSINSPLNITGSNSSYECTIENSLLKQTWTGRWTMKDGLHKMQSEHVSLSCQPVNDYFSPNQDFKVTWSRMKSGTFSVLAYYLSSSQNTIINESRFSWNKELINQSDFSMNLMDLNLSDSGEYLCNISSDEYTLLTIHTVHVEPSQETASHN
# T3: human B7-H7 recombinant protein (human, UniProt Q9UM44 23-344)
# T3 construct: also called human B7-H7 protein
# T3 sequence (looked up): T2 sequence (looked up)
# B1: PR003249 (antibody, human IgG1, kappa)
# heavy: QVQLVESGGGVVQPGRSLRLSCAASGFTFSDYGIHWVRQAPGKGLEWVAVIWYDGSDKYYADSVRGRFTISRDNSKNTLSLQMNSLRVEDTAVYYCARDRSSGAMGYFVYWGQGTLVTVSS[not shown - human IgG1 constant region]
# light: [not shown - about 100 residues][not shown - about 100 residues]
# notes: Human IgG1; also called 25H3F2
# Assays:
# [1] = molecular target: T1, human B7-H7 on the cell surface; experiment: flow cytometry, LS180 cells
# Protocol: (§1) This example was intended to study the in vitro activity of H2L2 monoclonal antibodies against human B7-H7 in binding to human/cynomolgus monkey B7-H7. Since homologous molecules of B7-H7 were not present in mice, the detection was not performed. […] The cells were adjusted to a cell density of 1×10⁶ cells/mL, respectively. The cells were seeded in a 96-well V-bottom plate (Corning, #3894) at 100 μL/well, and the antibody to be tested at 2× final concentration with 3-fold concentration gradient dilution was then added at 100 μL/well. The cells were incubated at 4° C. for 2 hours in the dark. After the incubation, the cells were rinsed twice by adding pre-chilled PBS containing 2% BSA at 100 μl/well, and centrifuged at 500 g at 4° C. for 5 minutes, and the supernatant was discarded. […] The cells were washed twice by adding pre-chilled PBS containing 2% BSA at 100 μL/well, and centrifuged at 500 g at 4° C. for 5 minutes, and the supernatant was discarded. Finally, the cells were resuspended in pre-chilled PBS containing 2% BSA at 200 μL/well, and the fluorescence signal values were read using an ACEA Novocyte3000 flow cytometer.
# [2] = molecular target: T1, human B7-H7 on the cell surface; experiment: flow cytometry, HEK-293/hu B7-H7 cells
# Protocol: as §1
# [3] = molecular target: T2, biotinylated human B7-H7 protein (Acro …); experiment: flow cytometry, blocking of biotinylated human B7-H7 binding to CHO-K1/KIR3DL3 cells
# Text: (§2) This example was intended to study the in vitro blocking activity of human anti-B7-H7 antibodies against the binding of human B7-H7 to its receptor KIR3DL3. A CHO-K1 cell (CHO-K1/KIR3DL3, Harbour BioMed US, Inc.) overexpressing human KIR3DL3 was used in experiments at the cellular level where human B7-H7/human KIR3DL3 binding was blocked. Briefly, the CHO-K1/KIR3DL3 cells were digested and resuspended in PBS containing 2% BSA. The cells were adjusted to a cell density of 1×10⁶ cells/mL. […] The cells were incubated at 4° C. for 1 hour in the dark. […] The cells were rinsed twice by adding pre-chilled PBS containing 2% BSA at 100 μL/well, and were centrifuged at 500 g at 4° C. for 5 minutes, and the supernatant was discarded. A fluorescent secondary antibody (PE Streptavidin, BD, Cat #: 554061, 1:200) was added at 100 μL/well, and the cells were incubated at 4° C. for 30 minutes in the dark. The cells were washed twice by adding pre-chilled PBS at 200 µL/well, and centrifuged at 500 g at 4° C. for 5 minutes, and the supernatant was discarded. Finally, the cells were resuspended in pre-chilled PBS at 200 μL/well, and the fluorescence signal values were read using an ACEA Novocyte3000 flow cytometer. IC50 was calculated.
# [4] = molecular target: T1, human B7-H7 on the cell surface; experiment: flow cytometry, HCC827 cells
# Protocol: as §1
# [5] = molecular target: T4, cynomolgus monkey B7-H7 on the cell surface (cynomolgus monkey); experiment: flow cytometry, HEK-293/cyno B7-H7 cells
# T4 construct: whole, on cells; also called cyno B7-H7
# Protocol: as §1
# [6] = molecular target: T2, biotinylated human B7-H7 protein (Acro …); experiment: flow cytometry, blocking of biotinylated human B7-H7 binding to HEK-293/CD28H cells
# Protocol: as §2, with “CD28H. […]” for “KIR3DL3. A CHO-K1 cell (CHO-K1/KIR3DL3, Harbour BioMed US, Inc.) overexpressing human KIR3DL3 was used in experiments at the cellular level where human B7-H7/human KIR3DL3 binding was blocked. Briefly, the CHO-K1/KIR3DL3 cells were digested and resuspended in PBS containing 2% BSA.”, “μL/well,” for “µL/well,”
# [7] = molecular target: T3, human B7-H7 recombinant protein; experiment: BLI (Octet), antibody captured on AHC sensor, human B7-H7 in solution, 1:1 global fit
# Protocol: The binding kinetics between antigen and antibody was analyzed using an Octet Red 96e (Fortebio) molecular interaction analyzer by biolayer interferometry (BLI) technology.
# For determining the affinity of antibodies for antigens, the rotary speed of the sensor was set at 1000 rpm. AHC sensors (Fortebio, #18-5060) placed in one column were first equilibrated in a test buffer for 10 minutes, and then used to capture the anti-B7-H7 antibodies at a capture height of 0.7 nm; and after being equilibrated in the buffer for 120 s, the AHC sensors bound to human B7-H7 (concentrations: 50-3.125 nM and 0 nM) with 2-fold gradient dilution for 180 s and dissociated for 300 s. The AHC sensors were finally regenerated by immersing in a 10 mM glycine-hydrochloric acid solution with pH 1.5 to elute the protein bound to the sensors.
# For data analysis using Octet Data Analysis software (Fortebio, version 11.0), 0 nM well was used as the reference well, reference subtraction was performed, “1:1 Global fitting” method was selected for data fitting, the kinetic parameters of the binding of the antigen to the antigen-binding protein were calculated, and the kₒₙ (1/Ms) value, kdis (1/s) value and KD (M) value were obtained.
binder,measurement,setting,value
B1,EC50,[1],0.035 nM
same,Maximum MFI,[1],21000 MFI
same,EC50,[2],0.881 nM
same,Maximum MFI,[2],800000 MFI
same,IC50,[3],5.07 nM
same,Maximum inhibition rate (%),[3],97.5%
same,EC50,[4],0.0151 nM
same,Maximum MFI,[4],55400 MFI
same,EC50,[5],0.412 nM
same,Maximum MFI,[5],419000 MFI
same,IC50,[6],1.38 nM
same,Maximum inhibition rate (%),[6],101%
same,Kd,[7],1.83 nM
same,koff,[7],0.000178 s⁻¹
same,kon,[7],97000 M⁻¹ s⁻¹
